Results published in the supplement of paper PMC3334620.
In all, about 33,000 sequences were measured (“E-score (-0.5 to 0.5)”: median about -0.012, highest 2% from about 0.29 on). This is one part of the list.

biological target: T1, Ybr033w (UniProt P38073); assay: PBM E-score (8-mer binding enrichment) (E-score (-0.5 to 0.5)); higher = stronger / more preferred TF binding; most listed sequences are background and not binding sites; conditions: protein concentration: 200 nM; construct: GST-full length
T1 sequence: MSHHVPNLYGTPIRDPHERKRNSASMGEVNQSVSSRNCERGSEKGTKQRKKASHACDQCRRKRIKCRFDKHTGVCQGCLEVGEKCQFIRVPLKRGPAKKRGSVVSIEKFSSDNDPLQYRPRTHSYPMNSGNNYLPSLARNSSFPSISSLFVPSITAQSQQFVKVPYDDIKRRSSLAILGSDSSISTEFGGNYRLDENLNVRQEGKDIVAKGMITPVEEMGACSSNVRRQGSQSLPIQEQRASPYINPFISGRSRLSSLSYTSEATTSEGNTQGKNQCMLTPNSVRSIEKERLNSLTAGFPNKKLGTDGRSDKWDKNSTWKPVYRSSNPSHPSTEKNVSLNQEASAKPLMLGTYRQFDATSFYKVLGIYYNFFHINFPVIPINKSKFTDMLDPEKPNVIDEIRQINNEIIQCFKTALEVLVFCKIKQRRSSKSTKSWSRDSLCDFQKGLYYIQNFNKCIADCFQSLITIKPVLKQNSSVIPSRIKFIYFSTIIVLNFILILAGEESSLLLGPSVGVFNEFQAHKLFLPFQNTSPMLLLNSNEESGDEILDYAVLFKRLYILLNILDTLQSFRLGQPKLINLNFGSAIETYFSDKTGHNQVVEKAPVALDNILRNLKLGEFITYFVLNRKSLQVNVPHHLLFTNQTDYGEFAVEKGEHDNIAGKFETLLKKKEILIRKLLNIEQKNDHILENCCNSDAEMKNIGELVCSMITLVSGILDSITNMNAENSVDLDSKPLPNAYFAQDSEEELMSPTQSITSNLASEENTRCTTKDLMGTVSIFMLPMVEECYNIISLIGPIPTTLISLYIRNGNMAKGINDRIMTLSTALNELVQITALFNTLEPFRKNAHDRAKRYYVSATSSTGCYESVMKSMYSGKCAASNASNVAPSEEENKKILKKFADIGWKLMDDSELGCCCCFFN
Procedure, shortened: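 E-scores (a modified Wilcoxon-Mann-Whitney statistic) were assigned by the Universal PBM Analysis Suite to every ungapped eight-base word pooled with its reverse complement. The input came from universal all-10-mer Agilent arrays made double-stranded by primer extension and probed with GST-tagged yeast transcription factors at about 100-200 nM. Fluorescent anti-GST detected bound protein, and masliner normalised the scans.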

Sequence | PBM E-score
GTTCACCA | -0.0286
AATTCATC | 0.145
AATGAGCA | 0.0856
AGCCCCAG | -0.128
GAAAACCC | -0.0428
CGTTCTTC | 0.0897
GCGAAGAC | -0.205
ATGTCCAA | 0.0809
TATGCTCA | 0.171
TGCGTAAA | 0.166
GCTGTGAA | -0.0256
CCTTGCAA | -0.188
ACAGGTTA | 0.0107
CCCAACCA | -0.00754
ACGGGAGA | -0.112
ATTCAAAC | 0.167
AGTAGTCG | -0.0439
AGGAGTAC | -0.2
CACCATTC | -0.0034
ACCAATGA | -0.0131
AATTTTAT | 0.331
ATAGTTGG | -0.00301
AGTCCGAA | 0.0126
AATAAGAG | 0.171
ACCGGGAC | -0.128

Sequence | PBM E-score
GTGACGAA | 0.0494
CCCAAGGG | -0.29
GGCTGCTA | -0.0804
CCGCCCTC | -0.172
GCACTAGC | -0.2
GACCAATA | 0.0671
AGTGCCAT | -0.083
CCGTCGGA | -0.201
ACCATGCT | -0.0803
CAAGTTTC | 0.166
CTAGCTGC | -0.336
GACTGACC | -0.205
ACCCACAA | 0.0993
AGAGCAGC | -0.271
CAACTCGG | -0.105
TCCATTCA | 0.0959
ATACGTCA | 0.113
AGCGGTCG | -0.243
ACCTCCCA | -0.283
AAACTTGC | 0.185
ATGTTCTA | -0.00747
AAGGCATT | -0.0474
CCTTATTA | 0.135
AATTGACT | 0.139
ACCCACTC | -0.0665

Sequence | PBM E-score
CCCCAGAG | -0.317
CAGGACTC | -0.176
AAAGGTGT | -0.187
CACGTACC | -0.157
ACCAGCCA | -0.00569
ATCGGCCA | -0.218
CGTGTCAC | 0.0273
GACGACGC | -0.307
CGGGTGTA | -0.0764
TACAGCGA | -0.0975
CTTGTACC | -0.136
GCTTTCCC | -0.253
AAGGTTAC | 0.0636
ATTCAATG | 0.089
AAATGGCT | 0.0549
ACTACTAC | 0.153
ATCGTCTC | -0.0845
TGCATGCA | -0.0445
AGCTCGTA | 0.0191
GAATCCTC | -0.0795
CCCAGCTC | -0.216
CAGAGTCC | -0.089
CGTGGCAC | -0.228
ACGTACAA | 0.107
CTTTAGGC | -0.0153

Sequence | PBM E-score
CCCTAGCC | -0.248
GCCCGGCA | -0.261
ATGGGAGG | -0.105
ATGACGCA | -0.0224
CTCAACGA | -0.00223
GGGCTGAC | -0.224
AAGTAGAG | -0.226
ACGGGTAC | -0.167
CTATTACC | -0.102
CCAGTGGC | -0.243
TAAAATGA | 0.217
AAGGTCGG | -0.0863
CCCACTAA | -0.0112
ACACATCT | 0.0852
AGCTTCTA | 0.0252
AATAAGTG | 0.162
TACCAGAA | 0.231
AGAAATGA | 0.172
ATGACCCC | -0.125
ACCGACTC | -0.114
CGTTCGAC | -0.0801
ATTGCGCC | -0.123
AGCGGCTA | -0.186
TCAATGAA | 0.139
AGACATAG | 0.00974

Sequence | PBM E-score
CGAACATA | 0.2
CTATGTGA | -0.0558
AGGTTAGC | -0.0766
AGAACACA | 0.0194
TAGACCAA | 0.146
GCACCTAC | -0.232
GGATCCCA | -0.085
CAGTCAAG | -0.0633
CAGTGATG | 0.0429
AAAAAATC | 0.248
ACTTGGAC | 0.127
CCGCTGAG | -0.203
GGGGGGAC | -0.429
ACCTGCCG | -0.15
ACCTTCTC | -0.0404
GTACTTGA | 0.115
CCTCGTAG | 0.0213
CGCGGCAA | -0.104
ATTTCATA | 0.076
ACTACATG | 0.135
GTCAGGCA | -0.096
CGGATACG | -0.111
ATCTACGG | 0.0177
ACAAAGAG | -0.0759
CAGTCGGC | -0.229

Sequence | PBM E-score
AGCTCACT | -0.194
CCAGCCAA | -0.0553
CGTTGCTA | -0.00166
AGTTCGTG | -0.0686
AGCTATCG | -0.109
CGTGTTGA | -0.0106
CTTAACGA | 0.0835
CGTAGTGC | -0.0489
CGAGAACA | 0.0107
GATATGCC | -0.106
CAGATAGA | -0.0383
CCGAGCAA | -0.13
CCGCACCA | -0.00985
CCGTGGTC | -0.277
GGAAGCCA | -0.344
CCGGGAGA | 0.00614
GTCTTAAC | -0.0384
CAATTTAC | 0.0999
CCCCAGTA | -0.209
CCGAAACG | 0.0484
ATAGGCTC | -0.097
CCAAGAGC | -0.25
GCCCACGC | -0.22
ACGGGTGA | -0.201
CGTCTTCA | -0.0568

Sequence | PBM E-score
AAATGTAC | 0.155
ACGAGTCA | -0.117
CATAATTC | -0.00123
AGTGATCC | -0.091
TAAACTAA | 0.271
CGAAGAAA | 0.156
AAATTCCG | 0.309
TGCCGGAA | 0.208
GATCCACA | -0.016
GCTGTTTA | 0.235
TCACACCA | 0.0909
ACACTATC | 0.11
GACGACTA | -0.0491
AGCCGGTC | -0.263
CCTCTCCA | -0.228
CAGAATGC | -0.0455
ACTTGGGG | -0.19
GCAACTGC | 0.0843
CCAGAGAA | 0.0385
AATGCCCA | -0.195
GCCCATTA | -0.069
ATCTCGGC | 0.0213
